# In the supplement of paper PMC8728848:
# Some of the results follow.
# Key:
# Experiment in all cases: glycan array binding signal (z-score within array); higher = stronger binding
# Details in all cases: glycan notation: IUPAC condensed, linker removed
# [1] = molecular target: Neu5Ac(a2-3)Gal(b1-4)GlcNAc(b1-3)[Neu5Ac(a2-3)Gal(b1-4)GlcNAc(b1-6)]GalNAc
# Procedure, shortened: (§1)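 Glycan array binding is given as a within-array Z-score, which can be read as non-binding when negative. The arrays, 3228 of them, came from the Consortium for Functional Glycomics database and were retained only where the protein sequence was available. Z-scores were averaged across arrays of the same protein sequence at different concentrations or buffers and across linkers.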
# [2] = molecular target: Neu5Ac(a2-3)Gal(b1-4)GlcNAc(b1-6)GalNAc
# Procedure, shortened: as §1
# [3] = molecular target: Neu5Ac(a2-3)Gal(b1-4)GlcNAc(b1-6)[Gal(b1-3)]GalNAc
# Procedure, shortened: as §1
# [4] = molecular target: Neu5Ac(a2-3)Gal(b1-4)GlcNAc(b1-6)[Neu5Ac(a2-3)Gal(b1-3)]GalNAc
# Procedure, shortened: as §1
# [5] = molecular target: Neu5Ac(a2-3)Gal(b1-4)GlcNAc6S
# Procedure, shortened: as §1
# [6] = molecular target: Neu5Ac(a2-3)Gal(b1-4)[Fuc(a1-3)]GlcNAc
# Procedure, shortened: as §1
# [7] = molecular target: Neu5Ac(a2-3)Gal(b1-4)[Fuc(a1-3)]GlcNAc(b1-2)Man
# Procedure, shortened: as §1
# [8] = molecular target: Neu5Ac(a2-3)Gal(b1-4)[Fuc(a1-3)]GlcNAc(b1-3)Gal
# Procedure, shortened: as §1
# [9] = molecular target: Neu5Ac(a2-3)Gal(b1-4)[Fuc(a1-3)]GlcNAc(b1-3)Gal(b1-4)GlcNAc
# Procedure, shortened: as §1
# [10] = molecular target: Neu5Ac(a2-3)Gal(b1-4)[Fuc(a1-3)]GlcNAc(b1-3)Gal(b1-4)[Fuc(a1-3)]GlcNAc(b1-3)Gal(b1-4)[Fuc(a1-3)]GlcNAc
# Procedure, shortened: as §1
# [11] = molecular target: Neu5Ac(a2-3)Gal(b1-4)[Fuc(a1-3)]GlcNAc(b1-3)GalNAc
# Procedure, shortened: as §1
# [12] = molecular target: Neu5Ac(a2-3)Gal(b1-4)[Fuc(a1-3)]GlcNAc(b1-6)[Gal(b1-3)]GalNAc
# Procedure, shortened: as §1
# [13] = molecular target: Neu5Ac(a2-3)Gal(b1-4)[Fuc(a1-3)]GlcNAc(b1-6)[Neu5Ac(a2-3)Gal(b1-3)]GalNAc
# Procedure, shortened: as §1
# [14] = molecular target: Neu5Ac(a2-3)Gal(b1-4)[Fuc(a1-3)]GlcNAc6S
# Procedure, shortened: as §1
# [15] = molecular target: Neu5Ac(a2-3)Gal6S(b1-4)GlcNAc
# Procedure, shortened: as §1
# [16] = molecular target: Neu5Ac(a2-3)Gal6S(b1-4)[Fuc(a1-3)]GlcNAc
# Procedure, shortened: as §1
# [17] = molecular target: Neu5Ac(a2-3)GalNAc
# Procedure, shortened: as §1
# [18] = molecular target: Neu5Ac(a2-3)GalNAc(b1-4)GlcNAc
# Procedure, shortened: as §1
# [19] = molecular target: Neu5Ac(a2-3)[GalNAc(b1-4)]Gal(b1-4)Glc
# Procedure, shortened: as §1
# [20] = molecular target: Neu5Ac(a2-3)[GalNAc(b1-4)]Gal(b1-4)GlcNAc
# Procedure, shortened: as §1
# [21] = molecular target: Neu5Ac(a2-3)[GalNAc(b1-4)]Gal(b1-4)GlcNAc(b1-3)GalNAc
# Procedure, shortened: as §1
# [22] = molecular target: Neu5Ac(a2-3)[Neu5Ac(a2-6)]GalNAc
# Procedure, shortened: as §1
# [23] = molecular target: Neu5Ac(a2-6)Gal
# Procedure, shortened: as §1
# [24] = molecular target: Neu5Ac(a2-6)Gal(b1-3)GlcNAc(b1-3)[Gal(b1-4)GlcNAc(b1-6)]Gal(b1-4)Glc
# Procedure, shortened: as §1
# [25] = molecular target: Neu5Ac(a2-6)Gal(b1-4)Glc
# Procedure, shortened: as §1
# [26] = molecular target: Neu5Ac(a2-6)Gal(b1-4)GlcNAc
# Procedure, shortened: as §1
# [27] = molecular target: Neu5Ac(a2-6)Gal(b1-4)GlcNAc(b1-2)Man
# Procedure, shortened: as §1
# [28] = molecular target: Neu5Ac(a2-6)Gal(b1-4)GlcNAc(b1-2)Man(a1-3)Man(b1-4)GlcNAc(b1-4)GlcNAc
# Procedure, shortened: as §1
# [29] = molecular target: Neu5Ac(a2-6)Gal(b1-4)GlcNAc(b1-2)Man(a1-3)[Gal(b1-4)GlcNAc(b1-2)Man(a1-6)]Man(b1-4)GlcNAc(b1-4)GlcNAc
# Procedure, shortened: as §1
# [30] = molecular target: Neu5Ac(a2-6)Gal(b1-4)GlcNAc(b1-2)Man(a1-3)[GlcNAc(b1-2)Man(a1-6)]Man(b1-4)GlcNAc(b1-4)GlcNAc
# Procedure, shortened: as §1
# [31] = molecular target: Neu5Ac(a2-6)Gal(b1-4)GlcNAc(b1-2)Man(a1-3)[GlcNAc(b1-4)][Neu5Ac(a2-6)Gal(b1-4)GlcNAc(b1-2)Man(a1-6)]Man(b1-4)GlcNAc(b1-4)GlcNAc
# Procedure, shortened: as §1
# [32] = molecular target: Neu5Ac(a2-6)Gal(b1-4)GlcNAc(b1-2)Man(a1-3)[Man(a1-6)]Man(b1-4)GlcNAc(b1-4)GlcNAc
# Procedure, shortened: as §1
# [33] = molecular target: Neu5Ac(a2-6)Gal(b1-4)GlcNAc(b1-2)Man(a1-3)[Neu5Ac(a2-3)Gal(b1-4)GlcNAc(b1-2)Man(a1-6)]Man(b1-4)GlcNAc(b1-4)GlcNAc
# Procedure, shortened: as §1
# [34] = molecular target: Neu5Ac(a2-6)Gal(b1-4)GlcNAc(b1-2)Man(a1-3)[Neu5Ac(a2-6)Gal(b1-4)GlcNAc(b1-2)Man(a1-6)]Man(b1-4)GlcNAc(b1-4)GlcNAc
# Procedure, shortened: as §1
# [35] = molecular target: Neu5Ac(a2-6)Gal(b1-4)GlcNAc(b1-2)Man(a1-3)[Neu5Ac(a2-6)Gal(b1-4)GlcNAc(b1-2)Man(a1-6)]Man(b1-4)GlcNAc(b1-4)[Fuc(a1-6)]GlcNAc
# Procedure, shortened: as §1
# [36] = molecular target: Neu5Ac(a2-6)Gal(b1-4)GlcNAc(b1-2)Man(a1-6)Man(b1-4)GlcNAc(b1-4)GlcNAc
# Procedure, shortened: as §1
# [37] = molecular target: Neu5Ac(a2-6)Gal(b1-4)GlcNAc(b1-2)Man(a1-6)[Gal(b1-4)GlcNAc(b1-2)Man(a1-3)]Man(b1-4)GlcNAc(b1-4)GlcNAc
# Procedure, shortened: as §1
# [38] = molecular target: Neu5Ac(a2-6)Gal(b1-4)GlcNAc(b1-2)Man(a1-6)[GlcNAc(b1-2)Man(a1-3)]Man(b1-4)GlcNAc(b1-4)GlcNAc
# Procedure, shortened: as §1
# [39] = molecular target: Neu5Ac(a2-6)Gal(b1-4)GlcNAc(b1-2)Man(a1-6)[Man(a1-3)]Man(b1-4)GlcNAc(b1-4)GlcNAc
# Procedure, shortened: as §1
# [40] = molecular target: Neu5Ac(a2-6)Gal(b1-4)GlcNAc(b1-2)[Neu5Ac(a2-6)Gal(b1-4)GlcNAc(b1-4)]Man(a1-3)[GlcNAc(b1-4)][Neu5Ac(a2-6)Gal(b1-4)GlcNAc(b1-2)[Neu5Ac(a2-6)Gal(b1-4)GlcNAc(b1-6)]Man(a1-6)]Man(b1-4)GlcNAc(b1-4)GlcNAc
# Procedure, shortened: as §1
# [41] = molecular target: Neu5Ac(a2-6)Gal(b1-4)GlcNAc(b1-2)[Neu5Ac(a2-6)Gal(b1-4)GlcNAc(b1-4)]Man(a1-3)[GlcNAc(b1-4)][Neu5Ac(a2-6)Gal(b1-4)GlcNAc(b1-4)Man(a1-6)]Man(b1-4)GlcNAc(b1-4)GlcNAc
# Procedure, shortened: as §1
# [42] = molecular target: Neu5Ac(a2-6)Gal(b1-4)GlcNAc(b1-2)[Neu5Ac(a2-6)Gal(b1-4)GlcNAc(b1-6)]Man(a1-6)[Neu5Ac(a2-6)Gal(b1-4)GlcNAc(b1-2)Man(a1-3)][GlcNAc(b1-4)]Man(b1-4)GlcNAc(b1-4)GlcNAc
# Procedure, shortened: as §1
# [43] = molecular target: Neu5Ac(a2-6)Gal(b1-4)GlcNAc(b1-3)Gal(b1-3)GlcNAc
# Procedure, shortened: as §1
# [44] = molecular target: Neu5Ac(a2-6)Gal(b1-4)GlcNAc(b1-3)Gal(b1-4)GlcNAc
# Procedure, shortened: as §1
# [45] = molecular target: Neu5Ac(a2-6)Gal(b1-4)GlcNAc(b1-3)Gal(b1-4)GlcNAc(b1-2)Man(a1-3)[Neu5Ac(a2-6)Gal(b1-4)GlcNAc(b1-3)Gal(b1-4)GlcNAc(b1-2)Man(a1-6)]GalNAc
# Procedure, shortened: as §1
# [46] = molecular target: Neu5Ac(a2-6)Gal(b1-4)GlcNAc(b1-3)Gal(b1-4)GlcNAc(b1-3)Gal(b1-4)GlcNAc
# Procedure, shortened: as §1
binder,measurement,setting,value
"Siglec-E (Mus musculus), Q91Y57 (protein) MLLLLLLLLLWGIKGVEGQNPQEVFTLNVERKVVVQEGLCVLVPCNFSYLKKRLTDWTDSDPVHGFWYREGTDRRKDSIVATNNPIRKAVKETRNRFFLLGDPWRNDCSLNIREIRKKDAGLYFFRLERGKTKYNYMWDKMTLVVTALTNTPQILLPETLEAGHPSNLTCSVPWDCGWTAPPIFSWTGTSVSFLSTNTTGSSVLTITPQPQDHGTNLTCQVTLPGTNVSTRMTTRLNVSYAPKNLTVTIYQGADSVSTILKNGSSLPISEGQSLRLICSTDSYPPANLSWSWDNLTLCPSKLSKPGLLELFPVHLKHGGVYTCQAQHALGSQHISLSLSPQSSATLSEMMMGTFVGSGVTALLFLSVCILLLAVRSYRRKPARPAVVAPHPDALKVSVSQNPLVESQADDSSEPLPSILEAAPSSTEEEIHYATLSFHEMKPMNLWGQQDTTTEYSEIKFPQRTAWP",glycan array binding signal (z-score),[1],0.079
same,glycan array binding signal (z-score),[2],0.177
same,glycan array binding signal (z-score),[3],-0.418
same,glycan array binding signal (z-score),[4],-0.45
same,glycan array binding signal (z-score),[5],-0.318
same,glycan array binding signal (z-score),[6],-0.391
same,glycan array binding signal (z-score),[7],-0.192
same,glycan array binding signal (z-score),[8],-0.399
same,glycan array binding signal (z-score),[9],-0.353
same,glycan array binding signal (z-score),[10],-0.568
same,glycan array binding signal (z-score),[11],-0.668
same,glycan array binding signal (z-score),[12],-0.331
same,glycan array binding signal (z-score),[13],-0.048
same,glycan array binding signal (z-score),[14],-0.096
same,glycan array binding signal (z-score),[15],-0.532
same,glycan array binding signal (z-score),[16],-0.513
same,glycan array binding signal (z-score),[17],0.203
same,glycan array binding signal (z-score),[18],-0.339
same,glycan array binding signal (z-score),[19],-0.34
same,glycan array binding signal (z-score),[20],-0.484
same,glycan array binding signal (z-score),[21],-0.355
same,glycan array binding signal (z-score),[22],-0.301
same,glycan array binding signal (z-score),[23],-0.448
same,glycan array binding signal (z-score),[24],-0.473
same,glycan array binding signal (z-score),[25],-0.388
same,glycan array binding signal (z-score),[26],-0.408
same,glycan array binding signal (z-score),[27],0.336
same,glycan array binding signal (z-score),[28],-0.181
same,glycan array binding signal (z-score),[29],-0.274
same,glycan array binding signal (z-score),[30],-0.564
same,glycan array binding signal (z-score),[31],-0.37
same,glycan array binding signal (z-score),[32],-0.168
same,glycan array binding signal (z-score),[33],0.024
same,glycan array binding signal (z-score),[34],-0.422
same,glycan array binding signal (z-score),[35],-0.207
same,glycan array binding signal (z-score),[36],-0.327
same,glycan array binding signal (z-score),[37],-0.422
same,glycan array binding signal (z-score),[38],-0.374
same,glycan array binding signal (z-score),[39],-0.315
same,glycan array binding signal (z-score),[40],-0.036
same,glycan array binding signal (z-score),[41],0.587
same,glycan array binding signal (z-score),[42],-0.4
same,glycan array binding signal (z-score),[43],-0.164
same,glycan array binding signal (z-score),[44],-0.418
same,glycan array binding signal (z-score),[45],-0.591
same,glycan array binding signal (z-score),[46],-0.444
